Source: PubChem BioAssay AID686979 (National Center for Advancing Translational Sciences (NCATS), 2013)
Several values for one entry are separate records, joined by “and”; a condition that tells them apart may be missing. Equal entries are not always repeated. In all, about 420,000 compounds went through this assay and about 50,000 (12%) were called active. The shares of active, inactive and inconclusive entries below differ from those in the screen. Calls follow the shape of the dose curve; as a rule, active = well fitted inhibition curve with a large enough effect; inconclusive = small, poorly fitted or top-dose-only effect; inactive = flat fitted curve, though single readings scatter. Where the call is inconclusive, the potency comes from a doubtful curve fit.
% is scaled to controls: 0 for no effect and ±100 for the full control effect; potency is read from the fitted curve at half-maximal effect; tags tell the direction and shape of the fitted curve.

Test: qHTS for Inhibitors of human tyrosyl-DNA phosphodiesterase 1 (TDP1): qHTS in cells in presence of CPT; also: nearly all actives have a fitted effect of over 55% in size
Conditions: chicken DT40 Tdp1-/-;hTDP1 cells + 20 nM CPT, ATP luminescence, 48 h; activity change, negative = growth inhibition: at 46.2 µM (top of the series) unless noted
Procedure, shortened: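 Cell growth measured by CellTiter-Glo luminescence after a minimum 48 h, 37 C compound exposure with 20 nM CPT in Tdp1-knockout DT40 cells stably expressing hTDP1, seeded 400/well; qHTS titration format.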
With `COC(=O)C1=C(c2cc3ccccc3s2)C[C@@H]2CC[C@H]1N2C(=O)NC1CCCCC1` the Potency was active: 18.4 µM. In the case of `COc1ccc(C(=O)N2CCC3(CC2)OCCO3)cc1`, the Potency is reported as “inactive”. For `CCCCCCCSc1cc(OC)c(CCN(C)C)cc1OC`, the Potency was inconclusive: 23.1 µM [inhibitor, single point]. In the case of `CC(C)CC(NC(=O)CCCNC(=O)CCC(=O)OC1O[C@H]2OC3(C)CC[C@H]4[C@H](C)CCC(C1C)C24OO3)C(=O)O` (some centres undefined), the Potency is reported as active: 0.206 µM. For `COC(=O)C1=C(c2c(C)noc2C)C[C@@H]2CC[C@H]1N2C(=O)NCc1ccc(C(F)(F)F)cc1`, the activity change, negative = growth inhibition was inconclusive: -30.5% [inhibitor]. For `CC(C)NC(C)C`, the Potency was “inactive”. In the case of `O=C(Cc1ccccc1)N1CCN(C/C=C/c2ccccc2)CC1`, the Potency is reported as “inactive”. In the case of `O=C1NC(=O)N(CCC2=CCCCC2)C(=O)/C1=C/c1cccs1`, the Potency is reported as inconclusive: 29.1 µM [inhibitor, single point]. With `COc1cc([C@@H]2c3cc4c(c(O)c3C[C@H]3COC(=O)[C@@H]32)OCO4)cc(OC)c1OC` the Potency was active: 0.158 µM. For `Cc1ccc(C)c(N2CCN(C(=O)c3cccn4c(=O)c5ccccc5nc34)CC2)c1`, the Potency was inconclusive: 29.1 µM [inhibitor, single point]. With `ClC1=C(Cl)C(Cl)=C(Cl)C1=C/C=C/c1ccccc1` the Potency was active: 5.17 µM. In the case of `CC1(C)CC(CCNCc2ccc3c(c2)OCO3)(Cc2ccccc2)CCO1` (centres undefined), the Potency is reported as inconclusive: 20.6 µM [inhibitor, single point]. For `CO[C@H]1C[C@H](O[C@H]2[C@H](C)O[C@@H](O[C@@H]3/C(C)=C/C[C@@H]4C[C@@H](C[C@]5(C=C[C@H](C)[C@@H](C6CCCCC6)O5)O4)OC(=O)[C@@H]4C=C(C)[C@@H](O)[C@H]5OC/C(=C\C=C\[C@@H]3C)[C@]54O)C[C@@H]2OC)O[C@@H](C)[C@@H]1O`, the Potency was active: 2.66 µM. For `C=CCn1c(O)c(/C=N/N2CCOCC2)c(=O)[nH]c1=S`, the Potency was “inactive”. In the case of `O=C(N/N=C/c1c(O)n(C2CCCCC2)c(=S)[nH]c1=O)c1ccccc1O`, the Potency is reported as inconclusive: 18.4 µM [inhibitor, single point]. In the case of `C[C@H]1COc2cccc(N3CCN(C)CC3)c2S(=O)(=O)N1`, the Potency is reported as “inactive”. With `CCOC(=O)C(O)(c1ccc(NC(=O)c2ccc(Cl)c(Cl)c2)cc1)C(F)(F)F` (centres undefined) the Potency was inconclusive: 29.1 µM [inhibitor, single point]. For `COc1cccc(CNCCc2c[nH]c3ccccc23)c1`, the Potency was inconclusive: 18.4 µM [inhibitor, single point]. For `C=CCN1CCC2(C)c3cc(O)ccc3CC1C2C` (centres undefined), the Potency was “inactive”. In the case of `C=CCc1ccccc1OCCn1c(C2CC(=O)N(Cc3ccc(F)cc3)C2)nc2ccccc21` (centres undefined), the Potency is reported as active: 16.4 µM. In the case of `N=C1c2ccccc2CN1c1cccc([N+](=O)[O-])c1`, the Potency is reported as “inactive”. With `CC(=O)Oc1c2c(c(CC=C(C)C)c3c1C(=O)C1=CC4CC5C(C)(C)OC(C/C=C(\C)C(=O)O)(C4=O)[C@]15O3)OC(C)(CCC=C(C)C)C=C2` (some centres undefined) the Potency was active: 0.82 µM. With `Cc1ccc2c(c1)C1CN(C)CCC1N2C(=O)c1cn(-c2ccccc2)nc1-c1ccccc1` (centres undefined) the Potency was inconclusive: 25.9 µM [inhibitor, single point]. With `CCC1(c2cnc[nH]2)Cc2ccccc2C1` the Potency was inconclusive: 23.7 µM [inhibitor, single point]. With `COc1cc(/C=C2\C(=O)NC(=O)N(c3ccccc3)C2=O)c([N+](=O)[O-])cc1OC` the Potency was “inactive”. For `Cc1cccc(C(=O)Nc2ccc(C(=O)OCc3cc(=O)n4nc(C5CC5)sc4n3)cc2)c1`, the Potency was inconclusive: 16.4 µM [inhibitor, single point]. For `N#CC[N+]1(CCCNP2(=O)C=C(c3ccccc3)OC(c3ccccc3)=C2)CCOCC1`, the Potency was “inactive”. In the case of `COC(=O)C1=Nc2ccccc2/C1=C\c1c(O)n(C)c(=O)n(C)c1=O`, the Potency is reported as “inactive”. For `CN(C)c1ccc(NC(=O)CN2C(=O)CN=C(c3ccccc3)c3cc(Cl)ccc32)cc1`, the Potency was inconclusive: 25.9 µM [inhibitor, single point]. For `CCOC(=O)[C@]12Cc3c(cc(OC)c(OC)c3OC)[C@H]1N(C)C(=O)c1ccccc12`, the Potency was inconclusive: 18.4 µM [inhibitor, single point]. For `CCC(=NCCc1ccccc1)c1c(O)n(C)c(=O)n(C)c1=O`, the Potency was inconclusive: 20.6 µM [inhibitor, single point]. In the case of `CC1=C2CC3C(CC=C4C[C@@H](O)CC[C@@]43C)[C@@H]2CC[C@]12O[C@@H]1C[C@H](C)CN[C@H]1[C@H]2C` (some centres undefined), the Potency is reported as “inactive”. For `COc1ccc(CNS(=O)(=O)c2cc3c(cc2C)N(C)CCO3)cc1`, the Potency was inconclusive: 29.1 µM [inhibitor, single point] and inconclusive: 25.9 µM [inhibitor, single point]. With `CS(=O)(=O)c1ccc(C2=C(CNC(=O)c3ccncc3)[C@H]3CC[C@@H](C2)N3Cc2ccccc2)cc1` the Potency was “inactive”. With `CCCCn1c(=O)c(C(=O)Nc2ccccc2S(N)(=O)=O)c(O)c2ccccc21` the Potency was inconclusive: 20.6 µM [inhibitor, single point]. In the case of `COc1ccc(-n2c(/C=C/c3ccc(O)c(OC)c3)nc3ccccc3c2=O)cc1`, the Potency is reported as active: 20.6 µM. For `CC(=O)Oc1ccccc1C(=O)Nc1ncc([N+](=O)[O-])s1`, the Potency was inconclusive: 21.1 µM [inhibitor, single point]. With `Cc1ccc([C@@H]2CC(=O)[C@@H]3CN(S(=O)(=O)c4ccccc4C)[C@H](c4ccc(Cl)cc4)C[C@@H]3N2S(=O)(=O)c2ccc(C)cc2)cc1` the Potency was inconclusive: 25.9 µM [inhibitor, single point]. In the case of `Cc1cccc(OCCNc2ncccc2[N+](=O)[O-])c1`, the Potency is reported as inconclusive: 29.1 µM [inhibitor, partial curve, poor fit]. With `C[N+]1(C)CCC(OC(=O)C(c2ccccc2)c2ccccc2)CC1` the Potency was “inactive”. With `Cc1ccccc1N1CCN(Cc2ccc3c(c2)OCO3)CC1` the Potency was inconclusive: 20.6 µM [inhibitor, single point]. In the case of `COc1cc(CNCCc2ccc3c(c2)OCO3)ccc1O`, the Potency is reported as “inactive”. For `CCOC(=O)c1ccc(N2C(=O)CC(N3CCC(C#N)(c4ccccc4)CC3)C2=O)cc1` (centres undefined), the Potency was “inactive”. In the case of `C#C[C@]1(O)CC[C@H]2[C@@H]3CCC4=C/C(=N/O)CC[C@@H]4[C@H]3CC[C@@]21CC`, the Potency is reported as inconclusive: 29.9 µM [inhibitor, single point]. For `Cc1ccc(Cn2nc(C)c(NC(=O)c3cc(-c4ccc(F)cc4)on3)c2C)cc1`, the Potency was active: 10.3 µM. For `COc1nc(NC(C)C)nc(N(C#N)CN2C(=O)c3ccccc3S2(=O)=O)n1`, the Potency was active: 23.1 µM. With `O=C1/C(=C/c2ccc3c(c2)OCO3)SC(=S)N1CCC(=O)N(CCO)c1ccccc1` the Potency was inconclusive: 29.1 µM [inhibitor, single point]. With `Cc1ccc(S(=O)(=O)N2CN3CCN(C3)C2)cc1` the Potency was active: 16.4 µM. For `CCC(=O)Oc1ccc(C(=O)Nc2cccc(C(=O)c3ccccc3)c2)cc1`, the Potency was inconclusive: 20.6 µM [inhibitor, single point]. With `COC(=O)C1=C(c2ccc(C(C)=O)cc2)C[C@@H]2CC[C@H]1N2C(=O)N1CCC(O)(c2ccc(Cl)cc2)CC1` the Potency was active: 16.4 µM. In the case of `COc1cccc(CN2CCN(Cc3cccc(F)c3)CC2)c1`, the Potency is reported as “inactive”. In the case of `Oc1c(Cl)cc(Cl)cc1CN1CCN(Cc2ccccc2)CC1`, the Potency is reported as “inactive”. With `CCc1ccccc1N1C(=O)N(Cc2ccccc2C)c2ccccc2S1(=O)=O` the Potency was inconclusive: 29.1 µM [inhibitor, single point]. With `O=C1C2CCN(CC2)C1Cc1ccc(OCCOc2ccccc2)cc1` (centres undefined) the Potency was active: 29.1 µM. In the case of `COC(=O)C1=C(c2ccc(-c3ccccc3)c(F)c2)C[C@@H]2CC[C@H]1N2C(=O)NC1CC1`, the Potency is reported as active: 4.11 µM. In the case of `CC1CC(C)C(=O)[C@H](C(O)CC2CC(=O)NC(=O)C2)C1` (some centres undefined), the Potency is reported as active: 0.291 µM. For `CC(=O)c1cccc(NC(=O)c2cccn(Cc3cccc(C)c3)c2=O)c1`, the Potency was active: 23.1 µM. In the case of `CC(C)NP(=O)(NC(C)C)OP(=O)(NC(C)C)NC(C)C`, the Potency is reported as “inactive”. In the case of `C[N+](C)(C)CCOC(=O)C(O)(c1ccccc1)c1ccccc1`, the Potency is reported as “inactive”. In the case of `Cc1ccccc1CCNCc1cc2cccc(C)c2[nH]c1=O`, the Potency is reported as active: 16.4 µM. For `O=C1NC(=O)N(c2ccccc2)C(=O)/C1=C/C=C/c1ccco1`, the Potency was active: 4.61 µM. In the case of `COc1ccc(C(=O)Cn2c(NCCO)nc3ccccc32)cc1`, the Potency is reported as active: 16.4 µM. With `COc1ccc(OCC(=O)N2CCN(C/C=C/c3ccccc3)CC2)cc1` the Potency was inconclusive: 29.1 µM [inhibitor, single point]. For `Nc1c(C(=O)OCc2ccccc2)c2nc3ccccc3nc2n1Cc1cccs1`, the Potency was inconclusive: 23.1 µM [inhibitor, single point]. For `Cc1ccc(-c2nnc(Nc3ccc(O)cc3)c3ccccc23)cc1S(=O)(=O)N1CCOCC1`, the Potency was inconclusive: 29.1 µM [inhibitor, single point]. For `COc1ccc(F)cc1C(=O)C1CCCN(Cc2ccc(O)cc2)C1` (centres undefined), the Potency was “inactive”. In the case of `Clc1ccc(CCC(Cn2ccnc2)Sc2c(Cl)cccc2Cl)cc1` (centres undefined), the Potency is reported as inconclusive: 12.8 µM [inhibitor, single point] and inconclusive: 16.4 µM [inhibitor, single point]. For `COC(/C(C)=C/C=C/C(C)=C/c1coc(C)n1)C(C)C1CC(O)C2(C)OC2C=CC(C)C2CC(CC(=O)O2)CC2OC2C(=O)O1` (centres undefined), the Potency was active: 0.116 µM. With `COc1ccc([C@H]2CC(=O)C=C(c3ccc4c5c(cccc35)CC4)C2)cc1` the Potency was inconclusive: 20.6 µM [inhibitor, partial curve].
